The whole screen tested about 52,000 compounds, of which about 1,700 (3.3%) were called active. Rule as the data show it: active = survival mostly below about 52% (no sharp cut-off); inactive = mostly above about 56%. The list shows a part of the results.
The compounds below were run on Wild type (assay: growth inhibition of S. aureus wild type versus tarO mutant, primary screen, teichoic acid synthesis inhibitors, RN4220, OD600 (AID 463173)). Details: S. aureus RN4220 wild type/DeltatarO growth, OD600, 18 h, stronger effect = lower value, screened at 18.75 µg/mL (by protocol).

Question: How did the survival turn out when `CCCOC(=O)C(N)c1ccccc1` (stereo not drawn) was run?
Answer: inactive: 110%

Question: How did the survival turn out when `COc1ccc(-c2sccc2C(C)C(=O)O)cc1` (stereo not drawn) was run?
Answer: inactive: 111%

Question: For `Cc1cc(C)cc(C(=O)Nc2ccc(N3CCN(S(C)(=O)=O)CC3)cc2)c1`, which survival is on record?
Answer: inactive: 123%

Question: With `Cc1ccc(CNC(=O)c2oc3ccc(S(=O)(=O)N4CCC(C)CC4)cc3c2C)cc1` as the compound, how does the survival read?
Answer: inactive: 74%

Question: Which survival does the source give for `CCCCN1C(=O)CN(C2CCCCCC2)C(=O)C1c1ccc(OC(C)C)c(OC)c1` (stereo not drawn) here?
Answer: inactive: 129%

Question: With `COc1ccc(C(=O)n2nc(C)cc2C)cc1` as the compound, how does the survival read?
Answer: inactive: 111%

Question: `Cc1cccc(OCC(=O)Nc2ccc3nc(Nc4cccc(C(F)(F)F)c4)cc(C)c3c2)c1` was tested. Which survival did it give?
Answer: inactive: 95%

Question: `COc1ccccc1CNC(=O)c1ccc2c(c1)N(Cc1cc(C)ccc1C)C(=O)c1ccccc1S2` was tested. Which survival did it give?
Answer: inactive: 74%

Question: Which survival does the source give for `CC(C)(O)c1cc(=O)sc2nc3ccccc3n12` here?
Answer: inactive: 99%

Question: How did the survival turn out when `CCCCNC(=O)c1cc2c(=O)n3cccc(C)c3nc2s1` was run?
Answer: inactive: 145%

Question: How did the survival turn out when `CCCn1cnc2c1c(=O)n(C)c(=O)n2C` was run?
Answer: inactive: 106%

Question: How did the survival turn out when `O=C(CCc1ccccc1)Nc1nccs1` was run?
Answer: inactive: 103%

Question: Which survival does the source give for `Cc1nnc(NCc2ccco2)s1` here?
Answer: inactive: 107%

Question: For `CCOc1ccc(NC(=O)Cn2cc(C(=O)c3ccc(F)cc3)c(=O)c3cc4c(cc32)OCCO4)cc1`, which survival is on record?
Answer: inactive: 89%

Question: `COc1ccc(-c2cc(C(F)(F)F)n3nc(C(=O)O)c(Cl)c3n2)cc1OC` was tested. Which survival did it give?
Answer: inactive: 70%

Question: `Cc1ccc(-n2ncc(C(=O)N3CCN(Cc4ccccc4)CC3)c2C2CCN(C(=O)OC(C)(C)C)CC2)cc1` was tested. Which survival did it give?
Answer: inactive: 124%

Question: For `CC(=O)c1cc(-c2ccccc2)n(CCC(=O)Nc2ccc(C(C)C)cc2)c1C`, which survival is on record?
Answer: inactive: 128%

Question: `Cc1ccc(-n2ccnc(NCCc3ccc(S(N)(=O)=O)cc3)c2=O)c(C)c1` was tested. Which survival did it give?
Answer: inactive: 81%

Question: How did the survival turn out when `COc1ccc(NC(=O)Cn2cnc3ccc(S(=O)(=O)N4CCC(C)CC4)cc3c2=O)cc1Cl` was run?
Answer: inactive: 158%

Question: For `CC(=O)Nc1ccc(C2=CSC3=NCCN23)cc1`, which survival is on record?
Answer: inactive: 89%

Question: With `CC(C)(C)OC(=O)N1CCC(c2c(C(=O)NCCN3CCCC3)cnn2-c2ccc(Cl)cc2)CC1` as the compound, how does the survival read?
Answer: inactive: 71%

Question: With `CCOc1ccc(/C=C/c2nc(C#N)c(NC3CCCCC3)o2)cc1` as the compound, how does the survival read?
Answer: inactive: 78%

Question: `Cc1oc(-c2ccc(C(=O)NCc3ccc(F)cc3)cc2)nc1CS(=O)c1ccccc1` (stereo not drawn) was tested. Which survival did it give?
Answer: inactive: 68%

Question: With `Cc1cc(C)cc(C(=O)Nc2c(C(=O)Nc3ccccc3F)oc3ccccc23)c1` as the compound, how does the survival read?
Answer: inactive: 22%

Question: How did the survival turn out when `CC(=O)c1cc2c(cc1N/C(=N/S(=O)(=O)c1ccccc1)c1ccc(Cl)cc1)OCO2` was run?
Answer: active: -2%

Question: How did the survival turn out when `COc1ccccc1-c1nnc(SCC(N)=O)o1` was run?
Answer: inactive: 84%

Question: How did the survival turn out when `CC(C)c1ccc(NC(c2nnc(-c3ccccc3)o2)c2ccc(F)cc2Cl)cc1` (stereo not drawn) was run?
Answer: inactive: 69%

Question: With `CCN(CC)CCNC(=O)c1ccc(-c2nc(CS(=O)(=O)c3ccc(C)cc3)c(C)o2)cc1` as the compound, how does the survival read?
Answer: inactive: 72%

Question: With `COc1ccccc1OCCn1c(C(C)Oc2ccccc2)nc2ccccc21` (stereo not drawn) as the compound, how does the survival read?
Answer: inactive: 76%

Question: For `COc1ccc(CNC(=O)C2CCN(c3nnc(-n4cccc4CNc4ccc(C)cc4)s3)CC2)c(OC)c1`, which survival is on record?
Answer: inactive: 80%

Question: Which survival does the source give for `Cc1ccccc1-n1c(=O)c2c3c(sc2n2cnnc12)CCCC3` here?
Answer: inactive: 79%

Question: For `Cc1ccc(S(=O)(=O)c2nc(-c3cccc(C)c3)oc2N2CCCCC2)cc1`, which survival is on record?
Answer: active: 2%

Question: For `O=S(=O)(c1ccc(F)cc1)N1CCC(n2c(C(F)(F)F)nc3cccnc32)CC1`, which survival is on record?
Answer: inactive: 68%

Question: How did the survival turn out when `COc1ccc(N2CCN(C(=O)CN(C)S(=O)(=O)c3cccs3)CC2)cc1` was run?
Answer: inactive: 89%

Question: With `COc1ccc(NC(=O)CSc2c3c(nc4ccccc24)CCC3)c(OC)c1` as the compound, how does the survival read?
Answer: inactive: 117%

Question: With `CCOC(=O)c1ccccc1NC(=O)c1sc2ccccc2c1Cl` as the compound, how does the survival read?
Answer: inactive: 37%

Question: Which survival does the source give for `COc1ccc(-c2cn3nc(N4CCCC(C(=O)NCc5ccccc5C)C4)sc3n2)cc1` (stereo not drawn) here?
Answer: inactive: 66%

Question: Which survival does the source give for `CCN(CC)C(=O)Cn1c(=O)cc(C)c2c(C)nn(C)c21` here?
Answer: inactive: 135%

Question: For `COc1ccc(Cn2ccnc2SCC(=O)Nc2cc(C(F)(F)F)ccc2Cl)cc1`, which survival is on record?
Answer: inactive: 68%

Question: Which survival does the source give for `COc1cccc(Nc2sc(C(=O)c3ccc(F)cc3)c(N)c2C(=O)NCc2ccc(C)cc2)c1` here?
Answer: inactive: 63%

Question: Which survival does the source give for `COc1cc(CNc2ccc3c(c2)ncn3C(C)C)cc(OC)c1OC` here?
Answer: inactive: 66%

Question: Which survival does the source give for `O=C(CN(CCc1ccccc1)S(=O)(=O)c1ccccc1)NCc1ccc(Cl)cc1` here?
Answer: inactive: 80%

Question: `Fc1ccccc1OCc1nc(-c2ccc(-n3cccc3)cc2)no1` was tested. Which survival did it give?
Answer: inactive: 95%

Question: Which survival does the source give for `CN(Cc1ccc(F)cc1)S(=O)(=O)c1nnc(NC(=O)c2ccc(F)cc2)s1` here?
Answer: inactive: 71%

Question: For `COc1cccc(NC(=O)CSCn2nnc3c(=O)[nH]c(Cc4ccc(F)cc4)nc32)c1`, which survival is on record?
Answer: inactive: 85%

Question: With `O=C(Nc1ccccc1Cl)C1CCN(c2nc3ccccc3[nH]2)CC1` as the compound, how does the survival read?
Answer: inactive: 66%

Question: Which survival does the source give for `Nc1cc(=O)[nH]c(SCC(=O)N(c2ccccc2)c2ccccc2)n1` here?
Answer: inactive: 111%

Question: For `Cc1ccc(Cl)cc1N1CCN(C(=O)c2cc(S(=O)(=O)N3CCCCCC3)cn2C)CC1`, which survival is on record?
Answer: inactive: 81%

Question: How did the survival turn out when `Cc1cc(Cl)ccc1Nc1ncnc2onc(C)c12` was run?
Answer: inactive: 86%

Question: For `O=C(CSc1nc2c([nH]c3ccccc32)c(=O)n1-c1ccccc1F)Nc1ccccc1C(F)(F)F`, which survival is on record?
Answer: inactive: 60%

Question: For `CC1CCC[S+](c2cc(O)ccc2O)C1` (stereo not drawn), which survival is on record?
Answer: inactive: 103%

Question: How did the survival turn out when `COC(=O)c1ccc2c(c1)N(CC(=O)Nc1cccc(C(F)(F)F)c1)C(=O)c1ccccc1S2` was run?
Answer: inactive: 77%

Question: Which survival does the source give for `CCOC(=O)c1ccc(NC(=O)C2CC(=O)N3CCCN=C3S2)cc1` (stereo not drawn) here?
Answer: inactive: 104%

Question: How did the survival turn out when `Cc1ccc2c(c1)CC(C)N2S(=O)(=O)c1nnc(NC(=O)c2ccccc2F)s1` (stereo not drawn) was run?
Answer: inactive: 28%

Question: `CC(C)c1ccccc1NC(=O)CN(c1ccccc1)S(=O)(=O)N(C)C` was tested. Which survival did it give?
Answer: inactive: 79%

Question: `CC(C)(C)n1nnnc1C(c1ccccn1)N1CCN(c2cccc(C(F)(F)F)c2)CC1` (stereo not drawn) was tested. Which survival did it give?
Answer: inactive: 99%

Question: `CCOc1ccc(CNC(=O)c2[nH]c3ccccc3c2Sc2ccc(C)cc2)cc1` was tested. Which survival did it give?
Answer: inactive: 120%

Question: Which survival does the source give for `O=C(Cn1ccn(-c2cccc(Cl)c2)c(=O)c1=O)c1ccc(F)cc1` here?
Answer: inactive: 81%

Reference: PubChem BioAssay AID463173 (ICCB-Longwood Screening Facility, Harvard Medical School, 2010)
